# Assay results reported in the supplement of paper PMC10037445.
# Several values for one entry are separate records, joined by “and”; a condition that tells them apart may be missing. Equal values may be shown once. Whole data set: some 2,900 compounds, median “NF-kB SEAP reporter activity, fold change vs agonist alone” near 0.99, cut for the highest 2% near 2.6. The list shows a part of the results.
# Experiments:
# RAW-Dual [1] = assay: NF-kB SEAP reporter activity, fold change vs agonist alone; cytotoxicity flag (confluency mask): cytotoxic (confluency <70% of control); higher = enhanced NF-kB activity
# In short: (§1)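 RAW-Dual macrophages were seeded in DMEM at 50,000 cells/well in 384-well plates, given 50 nL of library stock by pin tool, and given a PRR agonist 1 h later. Plates were held at 37 °C, 5% CO2 for 20 hours, after which supernatant was read for IRF by QuantiLuc luminescence and for NF-κB by QuantiBlue absorbance at 620 nm. Reporter activity is expressed as fold change over wells that received agonist alone. A well was called cytotoxic when IncuCyte confluency fell below 70% of agonist controls in both mask sets.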
# RAW-Dual [2] = assay: NF-kB SEAP reporter activity, fold change vs agonist alone; higher = enhanced NF-kB activity
# In short: as §1
# RAW-Dual [3] = assay: NF-kB SEAP reporter activity, fold change vs agonist alone; cytotoxicity flag (confluency mask): not cytotoxic; higher = enhanced NF-kB activity
# In short: as §1
# [4] = agonist: ODN 1826 (TLR9) 0.5 ug/mL
# [5] = agonist: Pam2CSK4 (TLR2/6) 0.1 ug/mL
# [6] = agonist: Pam3CSK4 (TLR2/1) 0.1 ug/mL
# [7] = library stock concentration (final ~1000-fold dilution): 10 mM, cytotoxicity flag (confluency mask): not cytotoxic, agonist: Imiquimod (TLR7) […]
# [8] = library stock concentration (final ~1000-fold dilution): 10 mM, cytotoxicity flag (confluency mask): not cytotoxic, agonist: MPLA (TLR4) […]
smiles,measurement,setting,value
CN1CCN(Cc2ccc(Nc3ncc(Cl)c(Nc4ccccc4S(=O)(=O)N(C)C)n3)cc2)CC1 (library stock concentration (final ~1000-fold dilution): 2 mM),NF-kB SEAP reporter activity,RAW-Dual [1]; agonist: LPS (TLR4) 0.1 ug/mL,0.331
same,NF-kB SEAP reporter activity,RAW-Dual [1]; [4],1.3
same,NF-kB SEAP reporter activity,RAW-Dual [1]; [5],0.245
same,NF-kB SEAP reporter activity,RAW-Dual [1]; [6],1.08
CN1CCN(Cc2ccc(Nc3ncc(Cl)c(Nc4ccccc4S(=O)(=O)N(C)C)n3)cc2)CC1,NF-kB SEAP reporter activity,"RAW-Dual [2]; library stock concentration (final ~1000-fold dilution): 2 mM, cytotoxicity flag (confluency mask): cytotoxic (confluency <70% of control), agonist: Imiquimod (TLR7) […]",1.37
same,NF-kB SEAP reporter activity,"RAW-Dual [2]; library stock concentration (final ~1000-fold dilution): 2 mM, cytotoxicity flag (confluency mask): cytotoxic (confluency <70% of control), agonist: MPLA (TLR4) […]",0.961
c1ccc(NCc2ccc(CNc3ccccn3)cc2)nc1 (library stock concentration (final ~1000-fold dilution): 10 mM),NF-kB SEAP reporter activity,RAW-Dual [3]; agonist: LPS (TLR4) 0.1 ug/mL,1.38
same,NF-kB SEAP reporter activity,RAW-Dual [3]; [4],0.808
same,NF-kB SEAP reporter activity,RAW-Dual [3]; [5],1.13
same,NF-kB SEAP reporter activity,RAW-Dual [3]; [6],1.22
c1ccc(NCc2ccc(CNc3ccccn3)cc2)nc1,NF-kB SEAP reporter activity,RAW-Dual [2]; [7],0.948
same,NF-kB SEAP reporter activity,RAW-Dual [2]; [8],1.03
O=C(NC(C1CC1)C(F)(F)F)c1cc(-c2cnn3cc(-c4ccc(F)cc4)cnc23)cs1 (stereo unspecified),NF-kB SEAP reporter activity,RAW-Dual [2]; [7],1.28
same,NF-kB SEAP reporter activity,RAW-Dual [2]; [8],1.98
O=C(NC(C1CC1)C(F)(F)F)c1cc(-c2cnn3cc(-c4ccc(F)cc4)cnc23)cs1 (stereo unspecified) (library stock concentration (final ~1000-fold dilution): 10 mM),NF-kB SEAP reporter activity,RAW-Dual [3]; agonist: LPS (TLR4) 0.1 ug/mL,2.68
same,NF-kB SEAP reporter activity,RAW-Dual [3]; [4],1.73
same,NF-kB SEAP reporter activity,RAW-Dual [3]; [5],2.46
same,NF-kB SEAP reporter activity,RAW-Dual [3]; [6],3.14
COc1c2occc2cc2ccc(=O)oc12,NF-kB SEAP reporter activity,RAW-Dual [2]; [7],0.971
same,NF-kB SEAP reporter activity,RAW-Dual [2]; [8],1.16
COc1c2occc2cc2ccc(=O)oc12 (library stock concentration (final ~1000-fold dilution): 10 mM),NF-kB SEAP reporter activity,RAW-Dual [3]; agonist: LPS (TLR4) 0.1 ug/mL,0.948
same,NF-kB SEAP reporter activity,RAW-Dual [3]; [4],1.17
same,NF-kB SEAP reporter activity,RAW-Dual [3]; [5],1.12
same,NF-kB SEAP reporter activity,RAW-Dual [3]; [6],1.19
CC(C)CC(N)=O,NF-kB SEAP reporter activity,RAW-Dual [2]; [7],1.02
same,NF-kB SEAP reporter activity,RAW-Dual [2]; [8],0.978
CC(C)CC(N)=O (library stock concentration (final ~1000-fold dilution): 10 mM),NF-kB SEAP reporter activity,RAW-Dual [3]; agonist: LPS (TLR4) 0.1 ug/mL,1.02
same,NF-kB SEAP reporter activity,RAW-Dual [3]; [4],1.03
same,NF-kB SEAP reporter activity,RAW-Dual [3]; [5],1.11
same,NF-kB SEAP reporter activity,RAW-Dual [3]; [6],1.1
CN(C)C(=O)Nc1cccc(-c2ccc(N(C)C)cc2)c1 (library stock concentration (final ~1000-fold dilution): 10 mM),NF-kB SEAP reporter activity,RAW-Dual [3]; agonist: LPS (TLR4) 0.1 ug/mL,1.52
same,NF-kB SEAP reporter activity,RAW-Dual [3]; [4],1.08
same,NF-kB SEAP reporter activity,RAW-Dual [3]; [5],0.914
same,NF-kB SEAP reporter activity,RAW-Dual [3]; [6],1.01
CN(C)C(=O)Nc1cccc(-c2ccc(N(C)C)cc2)c1,NF-kB SEAP reporter activity,RAW-Dual [2]; [7],0.998
same,NF-kB SEAP reporter activity,RAW-Dual [2]; [8],0.985
O=C(c1ccc(Oc2ccccc2)cc1Cl)c1c[nH]c2ncnc(NC3CCC(CO)OC3)c12 (stereo unspecified) (library stock concentration (final ~1000-fold dilution): 10 mM),NF-kB SEAP reporter activity,RAW-Dual [1]; agonist: LPS (TLR4) 0.1 ug/mL,0.431
same,NF-kB SEAP reporter activity,RAW-Dual [1]; [4],0.161
same,NF-kB SEAP reporter activity,RAW-Dual [1]; [5],0.293
same,NF-kB SEAP reporter activity,RAW-Dual [1]; [6],0.129
O=C(c1ccc(Oc2ccccc2)cc1Cl)c1c[nH]c2ncnc(NC3CCC(CO)OC3)c12 (stereo unspecified),NF-kB SEAP reporter activity,"RAW-Dual [2]; library stock concentration (final ~1000-fold dilution): 10 mM, cytotoxicity flag (confluency mask): cytotoxic (confluency <70% of control), agonist: Imiquimod (TLR7) […]",0.133
same,NF-kB SEAP reporter activity,"RAW-Dual [2]; library stock concentration (final ~1000-fold dilution): 10 mM, cytotoxicity flag (confluency mask): cytotoxic (confluency <70% of control), agonist: MPLA (TLR4) […]",0.252
C=CC(=O)N1CCC(CNc2ncnc(N)c2-c2ccc(Oc3ccccc3)cc2)CC1 (library stock concentration (final ~1000-fold dilution): 10 mM),NF-kB SEAP reporter activity,RAW-Dual [3]; agonist: LPS (TLR4) 0.1 ug/mL,0.782
same,NF-kB SEAP reporter activity,RAW-Dual [3]; [4],0.734
same,NF-kB SEAP reporter activity,RAW-Dual [3]; [5],0.549
same,NF-kB SEAP reporter activity,RAW-Dual [3]; [6],0.601
C=CC(=O)N1CCC(CNc2ncnc(N)c2-c2ccc(Oc3ccccc3)cc2)CC1,NF-kB SEAP reporter activity,RAW-Dual [2]; [7],0.888
same,NF-kB SEAP reporter activity,RAW-Dual [2]; [8],0.827
C=CC(C)(/C=C/c1ccc(O)cc1)CCC=C(C)C (stereo unspecified) (library stock concentration (final ~1000-fold dilution): 10 mM),NF-kB SEAP reporter activity,RAW-Dual [3]; agonist: LPS (TLR4) 0.1 ug/mL,0.878
same,NF-kB SEAP reporter activity,RAW-Dual [3]; [4],1.02
same,NF-kB SEAP reporter activity,RAW-Dual [3]; [5],0.934
same,NF-kB SEAP reporter activity,RAW-Dual [3]; [6],1.16
C=CC(C)(/C=C/c1ccc(O)cc1)CCC=C(C)C (stereo unspecified),NF-kB SEAP reporter activity,RAW-Dual [2]; [7],1.1
same,NF-kB SEAP reporter activity,RAW-Dual [2]; [8],1.12
N#Cc1ccc(C(c2ccc(C#N)cc2)n2cncn2)cc1 (library stock concentration (final ~1000-fold dilution): 10 mM),NF-kB SEAP reporter activity,RAW-Dual [3]; agonist: LPS (TLR4) 0.1 ug/mL,1.01
same,NF-kB SEAP reporter activity,RAW-Dual [3]; [4],0.93
same,NF-kB SEAP reporter activity,RAW-Dual [3]; [5],0.955
same,NF-kB SEAP reporter activity,RAW-Dual [3]; [6],1.09
N#Cc1ccc(C(c2ccc(C#N)cc2)n2cncn2)cc1,NF-kB SEAP reporter activity,RAW-Dual [2]; [7],0.839
same,NF-kB SEAP reporter activity,RAW-Dual [2]; [8],0.983
CCCC1CC(C(=O)NC(C(C)Cl)C2OC(SC)C(O)C(O)C2O)N(C)C1 (stereo unspecified),NF-kB SEAP reporter activity,RAW-Dual [2]; [7],1.02
same,NF-kB SEAP reporter activity,RAW-Dual [2]; [8],1.07
CCCC1CC(C(=O)NC(C(C)Cl)C2OC(SC)C(O)C(O)C2O)N(C)C1 (stereo unspecified) (library stock concentration (final ~1000-fold dilution): 10 mM),NF-kB SEAP reporter activity,RAW-Dual [3]; agonist: LPS (TLR4) 0.1 ug/mL,1.14
same,NF-kB SEAP reporter activity,RAW-Dual [3]; [4],1.04
same,NF-kB SEAP reporter activity,RAW-Dual [3]; [5],1.04
same,NF-kB SEAP reporter activity,RAW-Dual [3]; [6],1.17
NC(=O)CCC(N)C(=O)O (stereo unspecified),NF-kB SEAP reporter activity,"RAW-Dual [2]; library stock concentration (final ~1000-fold dilution): L-Glutamine, cytotoxicity flag (confluency mask): not cytotoxic, agonist: Imiquimod (TLR7) […]",0.934
same,NF-kB SEAP reporter activity,"RAW-Dual [2]; library stock concentration (final ~1000-fold dilution): L-Glutamine, cytotoxicity flag (confluency mask): not cytotoxic, agonist: MPLA (TLR4) […]",1.05
NC(=O)CCC(N)C(=O)O (library stock concentration (final ~1000-fold dilution): L-Glutamine),NF-kB SEAP reporter activity,RAW-Dual [3]; agonist: LPS (TLR4) 0.1 ug/mL,1.1
same,NF-kB SEAP reporter activity,RAW-Dual [3]; [4],1.14
same,NF-kB SEAP reporter activity,RAW-Dual [3]; [5],1.18
same,NF-kB SEAP reporter activity,RAW-Dual [3]; [6],1.02
C[N+]1(C)CCC(OC(=O)C(O)(c2ccccc2)C2CCCC2)C1 (stereo unspecified) (library stock concentration (final ~1000-fold dilution): 10 mM),NF-kB SEAP reporter activity,RAW-Dual [3]; agonist: LPS (TLR4) 0.1 ug/mL,1.13
same,NF-kB SEAP reporter activity,RAW-Dual [3]; [4],1
same,NF-kB SEAP reporter activity,RAW-Dual [3]; [5],1.09
same,NF-kB SEAP reporter activity,RAW-Dual [3]; [6],1.01
C[N+]1(C)CCC(OC(=O)C(O)(c2ccccc2)C2CCCC2)C1 (stereo unspecified),NF-kB SEAP reporter activity,RAW-Dual [2]; [8],1.11
O=C(/C=C/c1ccc(O)c(O)c1)OCCc1ccccc1 (library stock concentration (final ~1000-fold dilution): 10 mM),NF-kB SEAP reporter activity,RAW-Dual [1]; agonist: LPS (TLR4) 0.1 ug/mL,0.327 and 0.411
same,NF-kB SEAP reporter activity,RAW-Dual [1]; [4],0.188 and 0.213
same,NF-kB SEAP reporter activity,RAW-Dual [1]; [5],0.0802 and 0.0895
same,NF-kB SEAP reporter activity,RAW-Dual [1]; [6],0.15 and 0.167
